# The supplement of paper PMC7826260
# The list shows a part of the results. Cleavage of a single-stranded DNA pool by Rep nickase domains was read by sequencing (3 µM enzyme, 1 h, 37 °C); shown is the middle of each 90-letter strand. Numbers give uncut DNA relative to the enzyme-free pool, as log2; more negative means more cut, near 0 not cut, and no call is made. Counts are relative to all reads; where an enzyme cuts many sequences, the uncut ones exceed 0.
# How the values were obtained:
# Assay in all cases: uncleaved DNA left, log2 of reads against the no-enzyme library (log2 ratio); higher = less cleavage (more negative = more Rep cleavage of the k-mer); sequences stand for … in CTCGTCCG…ACCGGAGA
# [1] = system: T1, Rep nickase domain of Muscovy duck circovirus
# T1 sequence (residues 1-111 of Rep, tag left off): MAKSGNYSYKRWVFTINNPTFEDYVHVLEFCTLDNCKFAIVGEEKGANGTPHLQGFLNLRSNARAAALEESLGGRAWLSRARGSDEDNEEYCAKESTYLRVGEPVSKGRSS
# Protocol: (§1)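 A pool of 90-nt single-stranded DNAs with seven random bases just before the constant AC of the nick site (name = the seven bases) was cut by 3 µM recombinant His6-SUMO-tagged Rep nickase domain (300 nM DNA, 50 mM HEPES pH 8.0, 50 mM NaCl, 1 mM MnCl2, 1 h, 37 °C, three replicates). Uncut DNA was amplified and sequenced.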
# [2] = system: T2, Rep nickase domain of banana bunchy top virus
# T2 sequence (residues 1-94 of Rep, tag left off): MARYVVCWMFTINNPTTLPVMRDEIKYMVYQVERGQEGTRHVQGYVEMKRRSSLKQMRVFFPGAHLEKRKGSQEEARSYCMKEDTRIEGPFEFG
# Protocol: as §1
# [3] = system: T3, Rep nickase domain of cabbage leaf curl virus
# T3 sequence (residues 1-116 of Rep, tag left off): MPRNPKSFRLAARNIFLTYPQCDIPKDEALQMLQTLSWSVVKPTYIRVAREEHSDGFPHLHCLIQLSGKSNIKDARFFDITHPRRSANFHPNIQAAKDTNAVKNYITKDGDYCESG
# Protocol: as §1
# [4] = system: T4, Rep nickase domain of chickpea chlorotic dwarf virus
# T4 sequence (residues 1-124 of Rep, tag left off): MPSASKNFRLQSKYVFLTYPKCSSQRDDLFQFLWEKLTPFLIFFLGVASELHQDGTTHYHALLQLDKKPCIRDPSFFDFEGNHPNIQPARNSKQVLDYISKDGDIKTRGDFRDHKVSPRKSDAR
# Protocol: as §1
# [5] = system: T5, Rep nickase domain of faba bean necrotic yellows virus
# T5 sequence (residues 1-98 of Rep, tag left off): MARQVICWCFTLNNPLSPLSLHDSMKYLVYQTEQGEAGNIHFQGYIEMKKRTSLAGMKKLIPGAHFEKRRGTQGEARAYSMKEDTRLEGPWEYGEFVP
# Protocol: as §1
# [6] = system: T6, Rep nickase domain of maize striate mosaic virus
# T6 sequence (residues 1-117 of Rep, tag left off): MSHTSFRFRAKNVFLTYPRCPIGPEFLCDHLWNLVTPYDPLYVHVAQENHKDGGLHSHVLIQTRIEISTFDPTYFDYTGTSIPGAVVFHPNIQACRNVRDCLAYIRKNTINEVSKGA
# Protocol: as §1
# [7] = system: T7, Rep nickase domain of porcine circovirus 2
# T7 sequence (residues 2-116 of Rep, tag left off): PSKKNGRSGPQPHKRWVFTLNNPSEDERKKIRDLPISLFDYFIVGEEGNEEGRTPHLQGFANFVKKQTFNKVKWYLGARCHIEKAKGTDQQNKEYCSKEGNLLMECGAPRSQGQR
# Protocol: as §1
# [8] = system: T8, Rep nickase domain of tomato yellow leaf curl virus
# T8 sequence (residues 1-136 of Rep, tag left off): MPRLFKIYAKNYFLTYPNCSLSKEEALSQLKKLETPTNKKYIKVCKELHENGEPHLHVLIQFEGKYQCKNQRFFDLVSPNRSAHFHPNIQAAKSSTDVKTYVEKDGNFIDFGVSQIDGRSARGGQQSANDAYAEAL
# Protocol: as §1
# [9] = system: T9, Rep nickase domain of wheat dwarf virus
# T9 sequence (residues 1-137 of Rep, tag left off): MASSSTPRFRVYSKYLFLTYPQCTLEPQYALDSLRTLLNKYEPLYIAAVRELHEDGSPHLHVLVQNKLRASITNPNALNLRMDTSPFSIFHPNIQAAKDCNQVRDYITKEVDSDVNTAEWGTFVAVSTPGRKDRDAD
# Protocol: as §1
Sequence,uncleaved DNA left (log2) [1],uncleaved DNA left (log2) [2],uncleaved DNA left (log2) [3],uncleaved DNA left (log2) [4],uncleaved DNA left (log2) [5],uncleaved DNA left (log2) [6],uncleaved DNA left (log2) [7],uncleaved DNA left (log2) [8],uncleaved DNA left (log2) [9]
TTGATGT,0.146,0.0241,-0.0942,-0.335,0.0728,-0.857,0.0411,0.0276,-0.00618
TAGGGTC,0.0648,0.0392,0.431,0.753,0.0177,1.48,0.0857,0.0889,0.047
TGGCAGC,-0.0771,-0.0801,0.478,1.11,-0.052,0.951,0.116,-0.0157,0.0287
GCGTACG,0.0186,0.0582,-0.453,-0.177,-0.0438,-0.575,0.115,-0.0554,-0.0689
CACCTTC,-0.083,-0.0365,-0.0786,-0.902,-0.0722,-0.918,-0.105,-0.206,-0.00862
GACAAGA,0.0531,-0.0426,0.233,0.558,-0.00182,-0.0232,0.149,0.0946,0.121
GGGCCAT,-0.26,-0.074,0.814,1.94,-0.164,2.25,0.159,-0.201,0.0458
CATGCCA,-0.145,-0.103,-0.46,-1.75,-0.0893,-1.25,-0.145,-0.2,-0.209
AACGCGA,0.0472,-0.0276,-0.797,-0.209,-0.0401,-0.815,-0.00785,-0.0578,-0.169
AGTCGCT,0.0233,0.0178,0.175,0.657,-0.0733,0.918,-1.35,0.0568,-0.0496
CTTTCTA,-0.119,-0.0354,-0.117,-1.56,-0.11,-0.62,-0.292,0.0295,0.0218
GGTTTTT,-0.933,-0.0811,0.428,0.735,0.00611,1.73,-1.66,0.0979,0.183
CGAGTAA,0.0617,0.127,0.0476,0.0945,-0.0318,0.073,-0.425,0.105,0.195
GGGGGCC,0.0121,0.0591,0.744,1.6,0.0152,2.02,0.229,0.0405,0.0783
GGTCGGG,0.045,-0.109,0.519,0.957,-0.0219,1.13,0.171,0.0847,0.0735
TGCCGTA,-0.0618,-0.169,-0.0362,-0.728,-0.0442,-0.824,-0.157,-0.0137,-0.173

Sequence,uncleaved DNA left (log2) [1],uncleaved DNA left (log2) [2],uncleaved DNA left (log2) [3],uncleaved DNA left (log2) [4],uncleaved DNA left (log2) [5],uncleaved DNA left (log2) [6],uncleaved DNA left (log2) [7],uncleaved DNA left (log2) [8],uncleaved DNA left (log2) [9]
GAGGCTC,-0.00208,0.202,0.556,1.18,0.0327,1.8,0.137,0.0611,0.106
ATCTAGT,-1.39,-0.281,-0.293,-0.657,0.108,-0.893,-3.13,-0.0144,0.0101
ATCGGTA,0.0263,0.096,0.0273,-0.0751,0.0713,0.156,0.0861,0.0597,-0.00427
TATTGTT,-3.89,-3.71,-3.52,-3.16,-2.7,-2.39,-4.44,0.0258,-3.21
AGTCCAC,-0.232,-0.0469,0.098,0.09,-0.15,-0.0468,-0.0638,-0.0301,0.0534
CGTCACT,-0.0759,0.068,0.0432,-1.18,-0.198,-0.113,-1.09,-0.00426,-0.0671
CCAATCG,-0.0467,0.00356,-0.812,-0.0213,-0.0368,-1.14,0.048,-0.147,-0.0881
GCAACTT,0.0497,0.105,0.0984,-1.33,0.145,0.337,-0.0275,0.000317,0.194
GTTGGCG,-0.0245,-0.111,-0.712,0.539,0.00305,-0.396,-0.00592,-0.0877,-0.196
CGTACCT,-0.059,0.115,-0.0483,-1.41,0.0792,0.0833,-0.724,0.0987,0.0906
GCCCAGC,0.105,0.0977,-0.0535,0.224,0.232,-0.387,0.249,0.135,0.127
GTTCGTG,0.0635,0.104,-0.087,-0.182,0.0942,-0.375,0.23,0.141,0.086
GCTCCAG,0.0175,-0.0187,-0.393,-0.128,-0.203,-0.851,-0.0644,0.0199,0.0478
AAGTCAG,0.0488,0.0636,-0.516,-0.692,0.028,-1.08,-0.0547,0.0249,0.0198
CAGTTCA,-0.208,-0.54,-0.306,-2.62,-0.919,-0.834,-2.99,-0.0912,-0.095
